Data on 30 molecules can be found in PubChem BioAssay AID1745853 (National Center for Advancing Translational Sciences (NCATS), 2022).

The structures appear in SMILES notation. The list shows a part of the results. These are further read-outs of the screen, such as a control signal, another cell line or another target. No call is given for them.

Common to all, as to assay: Primary Screen for Target Class Profiling of Small Molecule Inhibitors of Methyltransferases
Experiment [1] has as its target Glycine N-methyltransferase (Homo sapiens) (UniProt Q14749). The settings on record: purified enzyme, MTase-Glo SAH luminescence; measured here: GNMT inhibition; at 40 µM; stronger effect = lower value. The method in brief:
(§1)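 Each enzyme was assayed with SAM and its substrate. SAH formation detected by MTase-Glo luminescence; single-point 40 uM screen[…].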

Experiment [2] addresses Guanidinoacetate N-methyltransferase (Homo sapiens) (UniProt Q14353). Conditions: purified enzyme, MTase-Glo SAH luminescence; measured here: GAMT inhibition; at 40 µM; stronger effect = lower value. The procedure, abridged:
as §1

Experiment [3] deals with Histamine N-methyltransferase (Homo sapiens) (UniProt P50135). The settings on record: purified enzyme, MTase-Glo SAH luminescence; measured here: HNMT inhibition; at 40 µM; stronger effect = lower value. The procedure, abridged: as §1
Experiment [4] concerns the target Nicotinamide N-methyltransferase (Homo sapiens) (UniProt P40261). The settings on record: purified enzyme, MTase-Glo SAH luminescence; measured here: NNMT inhibition; at 40 µM; stronger effect = lower value. The method in brief: as §1
Experiment [5] concerns the target Phenylethanolamine N-methyltransferase (Homo sapiens) (UniProt P11086). The settings on record: purified enzyme, MTase-Glo SAH luminescence; measured here: PNMT inhibition; at 40 µM; stronger effect = lower value. The procedure, abridged:
as §1
% is set by controls: 0 for no effect and ±100 for the full control effect.

Regarding `CC(C)(C)CC(=O)N1C[C@@H](CO)[C@@H]2Oc3ccc(Cl)cc3[C@@H]21`, the activity change, negative = inhibition in experiment [1] was -8.66%; in experiment [2] it was -11.4%; in experiment [3], -3.26%; in experiment [4], -28%; in experiment [5] it was -31.3%.

Regarding `O=C(c1cccs1)C1CCCN(Cc2nc(CCc3ccccc3)no2)C1` (stereo not given), the activity change, negative = inhibition in experiment [1] is -2.54%; in experiment [2], 1.37%; in experiment [3] it was 1.88%; in experiment [4] it was -1.65%; in experiment [5], -0.739%.

In the case of `Cn1ccc2c(C(=O)NCCc3cnc[nH]3)nc(-c3ccc(N4CCOCC4)cc3)cc21`, the activity change, negative = inhibition is -29.4% in experiment [1]; -22.6% in experiment [2]; -58.4% in experiment [3]; -23.6% in experiment [4]; -26.6% in experiment [5].

As to `COC(=O)c1cc2n(n1)CC(C)(C(=O)NC1CCCCC1)N(Cc1cccc(OC)c1)C2=O` (stereo not given), the activity change, negative = inhibition in experiment [1] was 8.64%; in experiment [2], 2.58%; in experiment [3] it was 13%; in experiment [4], 1.21%; in experiment [5], 6.03%.

On to `CCc1nc(-c2c3n(c(=O)n(CCOc4ccc(F)cc4)c2=O)CCCC3)no1`, for which the activity change, negative = inhibition was 2.16% in experiment [1]; -4.84% in experiment [2]; -1.49% in experiment [3]; -5.45% in experiment [4]; 2.12% in experiment [5].

Regarding `O=C(c1ccc(CCC2COc3ccccc3O2)cc1)N1CCCCC1` (stereo not given), the activity change, negative = inhibition in experiment [1] is -7.44%; in experiment [2], -6.96%; in experiment [3] it was -8.77%; in experiment [4] it was -10.1%; in experiment [5], -11.2%.

As to `CCCCOc1ccccc1-c1cc2n(n1)CC(C)(C(=O)NC1CCCCC1)N(CCCOC)C2=O` (stereo not given), the activity change, negative = inhibition in experiment [1] was -1.25%; in experiment [2] it was 0.156%; in experiment [3] it was 2.67%; in experiment [4], 1.76%; in experiment [5], -1.24%.

For `O=C(NC1CC1)c1ccc2nnc(C3CCCC3)n2c1`, the activity change, negative = inhibition in experiment [1] was -9.56%; in experiment [2] it was -14.8%; in experiment [3] it was -6.48%; in experiment [4], -20.5%; in experiment [5], -14%.

Take `CC1(C)CCC(NC(=O)[C@@H](N)CCC(=O)O)CC1`: the activity change, negative = inhibition in experiment [1] is 3.49%; in experiment [2], 11.2%; in experiment [3], 6.14%; in experiment [4] it was -2.68%; in experiment [5], 7.45%.

As to `CCN1C(=O)c2c(C(=O)NCc3ccc(Cl)cc3)ncn2CC1(C)C(=O)NC1CCCC1` (stereo not given), the activity change, negative = inhibition is -7.65% in experiment [1]; -3.18% in experiment [2]; 6.24% in experiment [3]; -8.41% in experiment [4]; 0.884% in experiment [5].

Turning to `COc1cc(-n2cnc3cc(-c4ccc(Cl)cc4)sc3c2=O)ccc1OCCN1CCCC1`, the activity change, negative = inhibition was -4.08% in experiment [1]; 15.7% in experiment [2]; -3.8% in experiment [3]; -10.2% in experiment [4]; 3.99% in experiment [5].

Regarding `Cc1ccc(NC(=O)N2CCn3cccc3C2C)cc1` (stereo not given), the activity change, negative = inhibition was 3.97% in experiment [1]; 0% in experiment [2]; 3.72% in experiment [3]; -3.76% in experiment [4]; 1.93% in experiment [5].

For `O=C(O)C1CCNCC1`, the activity change, negative = inhibition in experiment [1] is -1.72%; in experiment [2] it was 5%; in experiment [3], -0.582%; in experiment [4] it was -5.66%; in experiment [5], 5.28%.

Regarding `CCCCN(C)CCCN1C(=O)c2cc3occc3n2CC1(C)C(=O)NC1CCCCCC1` (stereo not given), the activity change, negative = inhibition in experiment [1] is 2.78%; in experiment [2] it was 3.77%; in experiment [3], -12.5%; in experiment [4], 2.81%; in experiment [5] it was -0.849%.

Consider `CCC(C)/C=C(C)/C=C/C1=CC2=CC(=O)C3(C)OC(C)(O)C(C(=O)OC)C3C2=CO1` (stereo not given), for which the activity change, negative = inhibition is 4.06% in experiment [1]; 4.89% in experiment [2]; 7.54% in experiment [3]; -9.91% in experiment [4]; -0.686% in experiment [5].

`CCOc1ccc(CN2C(=O)c3cc(-c4ccco4)nn3CC2(C)C(=O)NC2CCCCCC2)cc1` (stereo not given): the activity change, negative = inhibition was -4.22% in experiment [1]; 2.84% in experiment [2]; -3.82% in experiment [3]; -5.32% in experiment [4]; -10.1% in experiment [5].

Consider `CC(Oc1cc(O)c2c(=O)cc(-c3ccccc3)oc2c1)C(=O)c1ccccc1` (stereo not given), for which the activity change, negative = inhibition was -6.13% in experiment [1]; 2.17% in experiment [2]; -4.93% in experiment [3]; -7.02% in experiment [4]; -11.4% in experiment [5].

Turning to `CN(C)CC1(O)CCC2(CCN(C(=O)CCC3CCCC3)CC2)CC1`, the activity change, negative = inhibition in experiment [1] is -7.86%; in experiment [2], -7.52%; in experiment [3], -20.6%; in experiment [4], -13.4%; in experiment [5], -7.77%.

Turning to `CCCN1C(=O)c2cc(C(=O)NCCCN3CCN(C)CC3)nn2CC1(C)C(=O)NC1CCCC1` (stereo not given), the activity change, negative = inhibition is -2.75% in experiment [1]; -2.54% in experiment [2]; -2.21% in experiment [3]; -5.23% in experiment [4]; -4.91% in experiment [5].

Turning to `Cc1cc2c(cc1S(=O)(=O)N1CCN(c3ccc(F)cc3)CC1)n(C)c(=O)n2C`, the activity change, negative = inhibition in experiment [1] is -3.52%; in experiment [2], 2.27%; in experiment [3] it was -3.39%; in experiment [4], -6.84%; in experiment [5], -7.62%.

With `CC(C)OCCCNC(=O)C1c2c(n(C)c3ccccc23)SCC(=O)N1Cc1ccc2c(c1)OCO2` (stereo not given), the activity change, negative = inhibition is 3.77% in experiment [1]; 4.03% in experiment [2]; -6.33% in experiment [3]; -6.37% in experiment [4]; -2.2% in experiment [5].

On to `COc1ccccc1CN1C(=O)c2cc3occc3n2CC1(C)C(=O)NC1CCCCC1C` (stereo not given), for which the activity change, negative = inhibition is -0.743% in experiment [1]; 0.174% in experiment [2]; 2.33% in experiment [3]; 0.324% in experiment [4]; -0.655% in experiment [5].

In the case of `CC(C)(C)c1ccc(C(=O)NC(Cc2c[nH]c3ccccc23)C(=O)OCC(=O)c2ccc(Br)cc2)cc1` (stereo not given), the activity change, negative = inhibition in experiment [1] was -0.323%; in experiment [2], 3.68%; in experiment [3], -4.32%; in experiment [4], -3.56%; in experiment [5], -5.24%.

As for `O=C(O)c1cc(O[C@@H]2O[C@H](CO)[C@@H](O)[C@H](O)[C@H]2O)ccc1O`, the activity change, negative = inhibition in experiment [1] was 4.17%; in experiment [2], 7.79%; in experiment [3], 10.2%; in experiment [4], -3.12%; in experiment [5] it was 6.93%.

Consider `Cc1ccc(C(=O)N2C[C@@H](Oc3cccnc3)C[C@H]2C(N)=O)s1`, for which the activity change, negative = inhibition in experiment [1] was -3.43%; in experiment [2], -3.27%; in experiment [3], -1.6%; in experiment [4], -6.48%; in experiment [5], -3.19%.

On to `Cc1nc(C2CCCN(C(=O)C(C)(C)N)C2)cc(N2CCOCC2)n1` (stereo not given), for which the activity change, negative = inhibition is -4.04% in experiment [1]; -3.01% in experiment [2]; -27% in experiment [3]; -6.73% in experiment [4]; -9.57% in experiment [5].

`COc1ccccc1CN1C(=O)c2c(-n3cccc3)c3ccccc3n2CC1(C)C(=O)NC1CCCC1` (stereo not given): the activity change, negative = inhibition is 3.57% in experiment [1]; 0% in experiment [2]; -0.497% in experiment [3]; 0.234% in experiment [4]; 0.332% in experiment [5].

`CC1(C(=O)NC2CCCCC2)Cn2c(ccc2-c2ccco2)C(=O)N1CCc1ccccc1` (stereo not given): the activity change, negative = inhibition in experiment [1] was -4.13%; in experiment [2], -0.276%; in experiment [3] it was 4.31%; in experiment [4], -0.177%; in experiment [5], -0.916%.

Take `COc1ccc(C(=O)N2CC[C@H]3NC(=O)N(c4ccc(Oc5ccccc5)cc4)C(=O)[C@H]32)cc1`: the activity change, negative = inhibition in experiment [1] is 5.32%; in experiment [2], 1.87%; in experiment [3], -0.064%; in experiment [4], 3.81%; in experiment [5] it was -18.2%.

On to `CSc1ccc(CCNC(=O)c2cc3n(n2)CC(C)(C(=O)NC2CCCCC2)N(C)C3=O)cc1` (stereo not given), for which the activity change, negative = inhibition was -0.848% in experiment [1]; -4.04% in experiment [2]; 4.09% in experiment [3]; -4.29% in experiment [4]; -5.17% in experiment [5].
